Experimental data as given in PubChem BioAssay AID686979 (National Center for Advancing Translational Sciences (NCATS), 2013).
Among all 420,000 compounds or so, about 50,000 (12%) were called active. The shares of active, inactive and inconclusive entries below differ from those in the screen. Calls come from the whole dose curve; as a rule, active = well fitted inhibition curve with a large enough effect; inconclusive = small, poorly fitted or top-dose-only effect; inactive = flat fitted curve, though single readings scatter. Potencies of inconclusive entries are left out as doubtful fits.

assay: qHTS for Inhibitors of human tyrosyl-DNA phosphodiesterase 1 (TDP1): qHTS in cells in presence of CPT; conditions: chicken DT40 Tdp1-/-;hTDP1 cells + 20 nM CPT, ATP luminescence, 48 h; activity change, negative = growth inhibition: at 46.2 µM (top of the series) unless noted; note: nearly all actives have a fitted effect of over 55% in size
How it was run: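 Cell growth measured by CellTiter-Glo luminescence after a minimum 48 h, 37 C compound exposure with 20 nM CPT in Tdp1-knockout DT40 cells stably expressing hTDP1, seeded 400/well; qHTS titration format.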
% is set by controls: 0 for no effect and ±100 for the full control effect; potency is the fitted concentration of half-maximal effect; tags give direction and shape of the fitted curve.

SMILES | Potency | activity change, negative = growth inhibition
COc1ccc(N2C(=O)C3C(C2=O)C(C(=O)c2ccc(Cl)cc2)N2CCCC32)cc1 (stereo not given) | inconclusive [inhibitor, single point] | 
COC(/C(=N/O)c1ccc(Cl)cc1)c1ccccc1 (stereo not given) | inconclusive [inhibitor, partial curve, poor fit] | 
COc1ccc(-c2noc(CN(C)C(=O)Nc3ccccc3)n2)cc1 | inconclusive [inhibitor, single point] | 
CCOC(=O)c1c(C)[nH]c(C(=O)N2CCN(C(=O)OCC)CC2)c1C |  | inactive: -0.349%
COCC(C)OC(=O)c1c(N)n(CC(C)C)c2nc3ccccc3nc12 (stereo not given) | inconclusive [inhibitor, single point] | 
CCOc1ccc(C(=O)Nc2c(C(=O)c3ccccc3)oc3ccccc23)cc1 |  | inactive: -16.3%
Cc1cc(NC(=O)CS(=O)(=O)c2cn(Cc3cccc(Br)c3)c3ccccc23)no1 | active: 25.9 µM | 
COc1ccc([C@H]2[C@H](C(=O)C(C)(C)C)N3N=Cc4ccccc4C3C23C(=O)OC(C)(C)OC3=O)cc1 (stereo not given in full) | inconclusive [inhibitor, single point] | 
COc1cc(C(=O)NCc2ccc3c(c2)cc(C)n3C)cc(OC)c1OC |  | inconclusive: -33.8% [inhibitor]
Cc1ccc(O)c(CNc2nc3ccccc3n2C(C)C)c1 | inconclusive [inhibitor, single point] | 
CCOC(=O)c1c(N)nn(C(=O)C(C)C)c1-c1ccccc1 | inconclusive [inhibitor, single point] | 
O=C(COC(=O)C1=Cc2ccccc2OC1)NCc1ccc(F)cc1 |  | inactive: 6.9%
C=CCNS(=O)(=O)NC(=O)C1=C(N2CCCC2)COC1=O |  | inactive: 7.3%
CC(C)(C)Nc1nc(Cl)nc(N(C#N)CN2C(=O)c3ccccc3S2(=O)=O)n1 | inconclusive [inhibitor, single point] | 
COc1cc(/C=C2/NC(=O)NC2=O)cc(Br)c1OCc1ccc(C(=O)O)cc1 |  | inactive: 5.06%
COc1ccc(C(CC(=O)Nc2ccc(C)cn2)N2Cc3ccccc3C2=O)cc1OC (stereo not given) |  | inactive: -22.2%
c1ccc(-c2noc(-c3cccs3)n2)nc1 | active: 8.2 µM | 
COc1ccc(S(=O)(=O)N(CC(=O)N2CCN(c3ccccc3)CC2)c2ccccc2)cc1 |  | inactive: -28.7%
COC(=O)c1c(C)oc2ccc(N(C(=O)c3ccncc3)S(=O)(=O)c3cc(C)c(C)cc3C)cc12 | active: 10.3 µM | 
Nc1cccc(-c2nc3cc(S(=O)(=O)c4ccc5oc(-c6cccc(N)c6)nc5c4)ccc3o2)c1 | active: 8.2 µM | 
CC(=O)Nc1sc(C)c(C)c1C(=O)OCC(=O)Nc1cc(S(C)(=O)=O)ccc1Cl |  | inconclusive: -28.5% [inhibitor]
CCC(CC)C(=O)Nc1nnc(SCC(=O)N2CCN(c3ccccc3OC)CC2)s1 | active: 20.6 µM | 
Cc1ccc(CNc2oc(COc3ccccc3Cl)nc2C#N)cc1 | inconclusive [inhibitor, single point] | 

SMILES | Potency | activity change, negative = growth inhibition
CN(CCc1ccccc1)C(C(=O)c1ccc2c(c1)OCO2)c1nnnn1-c1ccccc1NC(=O)OC(C)(C)C (stereo not given) | active: 14.6 µM | 
COc1ccc2cc(C(=O)/C=C/c3cc(OC)c(O)c(OC)c3)ccc2c1 | active: 10.3 µM | 
Cc1cc(S(=O)(=O)N2CCOCC2)ccc1OCC(=O)N1CCCC1 |  | inactive: 1.21%
COc1ccccc1N1CCN(C(=O)C2CCN(S(=O)(=O)N3CCOCC3)CC2)CC1 |  | inactive: -14.8%
COc1ccc2c(c1)c(CC(=O)N1CCOCC1)c(C)n2C(=O)c1ccc(Cl)cc1 | inconclusive [inhibitor, single point] | 
CC(=O)CC1(C)OC(N)=C(C#N)C1(C#N)C#N (stereo not given) | inconclusive [inhibitor, single point] | 
Cc1cc(NC(=O)Cn2c(C)nc3ccccc3c2=O)ccc1Br | inconclusive [inhibitor, single point] | 
O=C1NN(c2ccccc2)C(=O)/C1=C/c1ccc(-c2ccc(C(=O)O)cc2)o1 |  | inactive: -18.5%
Cc1cc(=O)oc2cc(OCc3ccc(C(=O)N4CCN(c5ccc([N+](=O)[O-])cc5)CC4)cc3)ccc12 | inconclusive [inhibitor, partial curve] | 
O=C(c1cccc(F)c1)N1CCC[C@@]2(CCN(c3ncccn3)C2)C1 |  | inactive: 3.35%
CCCn1nnnc1-c1cc(Cl)cc(Cl)c1 | inconclusive [inhibitor, full curve] | 
CCOc1ccc(NC(=O)CN(c2ccc([N+](=O)[O-])cc2)S(=O)(=O)c2ccccc2)cc1 | inconclusive [inhibitor, single point] | 
COC(=O)CC1C(C)(C)C2(O)OC34CC2C(=O)[C@@]1(C)C3CC[C@]1(C)C4=CC(=O)OC1c1ccoc1 (stereo not given in full) | inconclusive [inhibitor, partial curve, poor fit] | 
Cc1cc2ccccn2c1C(=O)c1cccc(S(=O)(=O)N2CCOCC2)c1 | active: 14.6 µM | 
O=C(CCc1nc2ccccc2c(=O)[nH]1)NCCN1C(=O)S/C(=C\c2ccccc2Cl)C1=O | inconclusive [inhibitor, partial curve, poor fit] | 
COc1cccc(CNC(=O)Cn2c(=O)oc3cc(S(=O)(=O)N4CCCC4)ccc32)c1 | inconclusive [inhibitor, partial curve] | 
CCOC(=O)c1c(/N=C/C2=C(O)CC(C)(C)CC2=O)sc(C(C)=O)c1C |  | inactive: -3.03%
Cc1ccc(Nc2cc(C)nc3nc(Cc4ccc(Cl)cc4)nn23)cc1 | active: 18.4 µM | 
CCCNC(=O)C1CCN(S(=O)(=O)c2ccc(-c3nn[nH]n3)cc2)CC1 | active: 11.6 µM | 
Cc1cccc(N2C(=O)C(CC(=O)Nc3cccc(F)c3)N(Cc3cccs3)C2=O)c1 (stereo not given) | inconclusive [inhibitor, single point] | 
C=CCc1ccccc1OCCOc1ccc([N+](=O)[O-])cc1/C=N/NC(N)=O | inconclusive [inhibitor, single point] | 
N#Cc1c(/N=C/c2ccco2)oc(-c2ccccc2)c1-c1ccccc1 | inconclusive [inhibitor, single point] | 
